Measurements from PubChem BioAssay AID588855 (National Center for Advancing Translational Sciences (NCATS), 2011).
“And” between values parts separate entries of the source, which are not always exact repeats. Equal entries are not always repeated. The whole screen tested about 410,000 compounds, of which about 5,000 (1.2%) were called active. The shares of active, inactive and inconclusive entries below differ from those in the screen. Calls follow the shape of the dose curve; as a rule, active = well fitted inhibition curve with a large enough effect; inconclusive = small, poorly fitted or top-dose-only effect; inactive = no such curve, though single readings can be large or run the other way. A potency beside an inconclusive call is a rough fit, not a confirmed value.

assay: qHTS for Inhibitors of TGF-b; conditions: HepG2 CAGA-GFP TGF-b/SMAD3 reporter, GFP fluorescence, 18 h, TGF-beta stimulated, 500 pg/mL final; series mostly up to 46.1 µM; activity, negative = inhibition: at the top concentration; also: nearly all actives have a fitted effect of over 65% in size
Summary of the method: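 Inhibition of TGF-beta-driven CAGA-GFP reporter expression in HEPG2 cells is measured by cellular GFP fluorescence after 18 h stimulation with 500 pg/mL recombinant TGF-beta in 1% FBS medium at 37 degrees C.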
% is scaled to controls: 0 for no effect and ±100 for the full control effect; potency is read from the fitted curve at half-maximal effect; tags tell the direction and shape of the fitted curve.

Structure (SMILES)	Potency	activity, negative = inhibition
COc1cc(C2Nc3cc(Cl)c(S(N)(=O)=O)cc3S(=O)(=O)N2)ccc1OCc1ccccc1 (stereo not given)	inconclusive: 6.31 µM [inhibitor, single point]	
Cc1ccccc1-c1nc2c(=O)n(C)c(=O)nc-2n(C)n1	active: 0.631 µM	
COc1ccccc1CNC(=O)Cc1ccccc1		inactive: -11%
CCOC(=O)N1CCN(C(=O)CNC(=O)c2ccc(Cl)cc2Cl)CC1		inactive: -5.36%
O=C(/C(=N\Nc1ccccc1)Sc1nnnn1-c1ccccc1)c1ccccc1	inconclusive: 0.708 µM [inhibitor, full curve, poor fit]	
COc1ccc(-c2oc3ccc(-c4cc(OC)c(OC)c(OC)c4)cc3c2C#Cc2ccsc2)cc1		inactive: -0.125%
CSc1nc(N(C)NC(=O)c2ccc(Cl)cc2)c2ccccc2n1	inconclusive: 14.1 µM [inhibitor, single point]	
COc1ccccc1Nc1nc(Cl)c(C=O)s1		inactive: -3.99%
CCCn1c(=O)n(C)c(=O)c2c(SCC(=O)Nc3cc(C)on3)nc(C(C)(C)C)nc21	active: 17.8 µM	
COc1ccccc1-c1nnc(Sc2nc([N+](=O)[O-])nn2C)o1		inactive: -3.72%
COc1ccc(S(=O)(=O)N2CCc3ccccc32)cc1C(=O)Nc1ccc(C(N)=O)cc1	inconclusive: 10 µM [inhibitor, partial curve, poor fit]	
Cc1nn(Cc2ccccc2)c2sc(C(=O)N3CCN(Cc4ccc5c(c4)OCO5)CC3)cc12	inconclusive: 22.4 µM [inhibitor, single point]	
CCOC(=O)c1nn(-c2ccccc2)c(-c2ccccc2)c1C(=O)c1ccccc1	inconclusive: 35.5 µM [inhibitor, single point]	
CCOC(=O)c1cc(-c2ccc(F)cc2)n(CCC(=O)Nc2cc(OC)cc(OC)c2)c1C	inconclusive: 2.51 µM [inhibitor, full curve, poor fit]	
CC(=O)c1ccc(-c2cccc([C@H]3[C@@H]4C=CC[C@@H](C)[C@@H]4C(=O)N3Cc3ccccc3)c2)cc1	inconclusive: 22.4 µM [inhibitor, single point]	
O=C(Cn1nc(C(F)F)cc1C(F)F)NNC(=S)Nc1ccc(Cl)cc1	inconclusive: 3.55 µM [inhibitor, single point]	
O=C(c1cc(-c2ccc(Br)cc2)n[nH]1)N1CCN(S(=O)(=O)c2ccc(Cl)s2)CC1		inactive: 0%
O=C(CSc1nc2ccc([N+](=O)[O-])cc2s1)NCC1CCCO1 (stereo not given)		inactive: 6.29%
COc1ccccc1N(CC(O)Cn1ccnc1C)S(=O)(=O)c1ccccc1 (stereo not given)		inactive: 4.39%
Cc1cc(C)cc(NC(=S)N(CCN(C)C)C(C)c2cccnc2)c1 (stereo not given)	inconclusive: 35.5 µM [inhibitor, single point]	
Cc1sc(NC(=O)COc2ccccc2)c(C#N)c1-c1ccccc1		inactive: 10.3%
O=c1[nH]cnc2c1ncn2[C@@H]1O[C@H](COS(=O)(=O)O)[C@@H](O)[C@H]1O	inconclusive: 3.55 µM [inhibitor, single point]	
Cc1ccc(-c2nc3cccc(C)n3c2Nc2ccc3c(c2)OCO3)o1	inconclusive: 35.5 µM [inhibitor, single point]	

Structure (SMILES)	Potency	activity, negative = inhibition
O=C(N1CCN(Cc2ccc3c(c2)OCO3)CC1)C(Cl)(Cl)Cl		inactive: 6.68%
COc1cc(CC(=O)NC(c2ccccc2)c2ccccc2)cc(OC)c1OC	inconclusive: 11.2 µM [inhibitor, single point]	
N#Cc1ccc(NC(=O)CCc2ccc(S(=O)(=O)N3CCOCC3)cc2)cc1		inactive: -11.3%
COc1ccc(SC[C@H](C)CN2CC[C@H](C(C)(C)C)CCC2=O)cc1	inconclusive: 15.8 µM [inhibitor, single point] and inconclusive: 25.1 µM [inhibitor, single point]	
CN(CC(=O)Nc1c(Cl)cccc1Cl)C(=O)Cc1ccc2c(c1)CCC2	inconclusive: 20 µM [inhibitor, single point]	
Cc1cccc(C)c1NC(=O)/C(C#N)=C/c1ccsc1	inconclusive: 35.5 µM [inhibitor, single point]	
Cc1ccc(C(C)C)c(OCCCn2ccnc2C)c1		inactive: -14.4%
NC(Cc1ccc(C(F)(F)F)cc1)c1csc(Nc2nccc(C(F)(F)F)n2)n1 (stereo not given)	inconclusive: 35.5 µM [inhibitor, single point]	
O=C(OCc1c(F)cccc1Cl)c1cccc(S(=O)(=O)N2CCOCC2)c1		inactive: -3.94%
COc1cccc(-n2c(SCC(=O)Nc3ccc4c(c3)OCO4)nc3c([nH]c4ccccc43)c2=O)c1		inactive: 1.06%
COC(=O)c1ccc(Cn2cnc3c(cnn3-c3ccc(C)c(C)c3)c2=O)o1		inactive: -7.34%
O=C(Nc1ccc(Cl)c(C(F)(F)F)c1)C1Cc2c(-c3ccccc3)ccnc2O1 (stereo not given)	active: 14.1 µM	
CC(NS(=O)(=O)c1ccc2c(c1)CCN2C(=O)CCCC(=O)O)c1ccccc1 (stereo not given)	inconclusive: 0.355 µM [inhibitor, full curve, poor fit]	
O=C(NCCN1CCN(C(=O)NC2CCCCC2)CC1)NC1CCCCC1		inactive: 3.2%
COC1=CC(=O)C[C@@H](C)[C@]12Oc1c(Cl)c(OC)cc(OC)c1C2=O		inactive: 14.6%
Fc1ccc(-c2nc3n(n2)Cc2ccccc2-3)cc1	inconclusive: 11.2 µM [inhibitor, partial curve, poor fit]	
S=C(NCCCc1ccccc1)Nc1ccc(Cl)cc1	inconclusive: 35.5 µM [inhibitor, partial curve, poor fit]	
CC1(C)C2CCC(C2)C1(C)NC(=O)CNCC1CCCCC1 (stereo not given)		inactive: -19.4%
COCc1cc(=O)n2[nH]c(C)cc2n1	inconclusive: 20 µM [inhibitor, single point]	
Cc1ccc(NC(=O)/C(C#N)=C(\N)C(Cl)(Cl)Cl)nc1	inconclusive: 35.5 µM [inhibitor, single point]	
Cc1ccc(S(=O)(=O)/N=C2/C=C(Sc3ncn[nH]3)C(=O)c3ccccc32)cc1	active: 1 µM	
CCOc1ccccc1-c1cc(-c2n[nH]c(=S)n2CC)c2ccccc2n1	inconclusive: 0.562 µM [inhibitor, full curve, poor fit]	
